From the supplement of paper PMC12217912
The other results are listed elsewhere or left out. The full chains were built here from the parent and the listed change. Inactive controls read about 0.05.

B1: TEV protease; numbered along this chain (parent)
chain: MGESLFKGPRDYNPISSSICHLTNESDGHTTSLYGIGFGPFIITNKHLFRRNNGTLVVQSLHGVFKVKDTTTLQQHLVDGRDMIIIRMPKDFPPFPQKLKFREPQREERICLVTTNFQTKSMSSMVSDTSCTFPSGDGIFWKHWIQTKDGQCGSPLVSTRDGFIVGIHSASNFTNTNNYFTSVPKNFMELLTNQEAQQWVSGWRLNADSVLWGGHKVFMVKPEEPFQPVKEATQL

Variants of: B1
Experiment: raw area under fraction-flipped curve 0-4 h after induction (AUC4h, not background-subtracted), DNA-recorder readout of cleavage of the substrate (dimensionless); higher = more cleavage of the substrate by the protease variant
Settings: temperature: 34 °C; time window: 0-4 h after rhamnose induction
Experimental: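 In vivo DNA recorder in E. coli TOP10(DE3) ΔrhaA at 34 °C. Each TEVp single-site mutant (parent TEVp 0) is paired with a single-site variant of the 7-mer TEVs (canonical ENLYFQ|S). The substrate sits between flexible linkers in a Bxb1-sfGFP-TEVs-SsrA fusion, so cleavage stabilises Bxb1 and speeds flipping of a recombination array, read by NGS. The value is the raw area under the fraction-flipped curve over 0-4 h after rhamnose induction (AUC4h), with ≥20 reads per time point. It is not background-subtracted; inactive controls average about 0.047.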
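Note: Bxb1 expression induced with 0.2% (w/v) L-rhamnose at OD600 near 0.5, cultures sampled hourly, flipped fraction per protease–substrate barcode pair counted by paired-end Illumina sequencing.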

Row | Variant | area with substrate ENLYFQA | area with substrate ENLYFQD | area with substrate ENLYFQF | area with substrate ENLYFQG | area with substrate ENLYFQH | area with substrate ENLYFQI | area with substrate ENLYFQK | area with substrate ENLYFQL | area with substrate ENLYFQM | area with substrate ENLYFQP | area with substrate ENLYFQQ | area with substrate ENLYFQR | area with substrate ENLYFQS | area with substrate ENLYFQT | area with substrate ENLYFQV | area with substrate ENLYFQW | area with substrate ENLYFQY | area with substrate ENLYFQC | area with substrate ENLYFQN | area with substrate ENLYFQE
1 | MGESLFKGPRDYNPISSSPCHLTNESDGHTTSLYGIGFGPFIITNKHLFRRNNGTLVVQSLHGVFKVKDTTTLQQHLVDGRDMIIIRMPKDFPPFPQKLKFREPQREERICLVTTNFQTKSMSSMVSDTSCTFPSGDGIFWKHWIQTKDGQCGSPLVSTRDGFIVGIHSASNFTNTNNYFTSVPKNFMELLTNQEAQQWVSGWRLNADSVLWGGHKVFMVKPEEPFQPVKEATQL [I19P] | 0.049 | 0.0459 | 0.0487 | 0.0532 | 0.039 | 0.0311 | 0.0432 | 0.0439 | 0.0514 | 0.0421 | 0.0438 | 0.045 | 0.0485 | 0.0464 | 0.0434 | 0.0436 | 0.0401 |  |  | 
2 | MGESLFKGPRDYNPISSSVCHLTNESDGHTTSLYGIGFGPFIITNKHLFRRNNGTLVVQSLHGVFKVKDTTTLQQHLVDGRDMIIIRMPKDFPPFPQKLKFREPQREERICLVTTNFQTKSMSSMVSDTSCTFPSGDGIFWKHWIQTKDGQCGSPLVSTRDGFIVGIHSASNFTNTNNYFTSVPKNFMELLTNQEAQQWVSGWRLNADSVLWGGHKVFMVKPEEPFQPVKEATQL [I19V] | 0.106 | 0.0727 | 0.0767 | 0.0966 |  | 0.0539 | 0.0622 | 0.0671 | 0.0958 | 0.0557 | 0.0706 | 0.0599 | 0.104 | 0.0622 |  |  |  | 0.0956 | 0.0833 | 
3 | MGESLFKGPRDYNPISSSYCHLTNESDGHTTSLYGIGFGPFIITNKHLFRRNNGTLVVQSLHGVFKVKDTTTLQQHLVDGRDMIIIRMPKDFPPFPQKLKFREPQREERICLVTTNFQTKSMSSMVSDTSCTFPSGDGIFWKHWIQTKDGQCGSPLVSTRDGFIVGIHSASNFTNTNNYFTSVPKNFMELLTNQEAQQWVSGWRLNADSVLWGGHKVFMVKPEEPFQPVKEATQL [I19Y] | 0.0775 |  |  | 0.0515 | 0.0575 | 0.0384 | 0.0518 | 0.05 | 0.047 |  | 0.0612 | 0.0525 | 0.0714 | 0.0641 | 0.0518 |  | 0.0606 | 0.099 | 0.0674 | 0.0468
4 | MGESLFKGPRDYNPISSSINHLTNESDGHTTSLYGIGFGPFIITNKHLFRRNNGTLVVQSLHGVFKVKDTTTLQQHLVDGRDMIIIRMPKDFPPFPQKLKFREPQREERICLVTTNFQTKSMSSMVSDTSCTFPSGDGIFWKHWIQTKDGQCGSPLVSTRDGFIVGIHSASNFTNTNNYFTSVPKNFMELLTNQEAQQWVSGWRLNADSVLWGGHKVFMVKPEEPFQPVKEATQL [C20N] | 0.0517 | 0.0601 | 0.046 | 0.0547 | 0.0508 | 0.0534 | 0.0459 | 0.0523 | 0.0662 |  | 0.0489 | 0.0494 | 0.0601 | 0.0446 | 0.0386 | 0.0567 | 0.0597 | 0.0681 | 0.0718 | 
5 | MGESLFKGPRDYNPISSSIQHLTNESDGHTTSLYGIGFGPFIITNKHLFRRNNGTLVVQSLHGVFKVKDTTTLQQHLVDGRDMIIIRMPKDFPPFPQKLKFREPQREERICLVTTNFQTKSMSSMVSDTSCTFPSGDGIFWKHWIQTKDGQCGSPLVSTRDGFIVGIHSASNFTNTNNYFTSVPKNFMELLTNQEAQQWVSGWRLNADSVLWGGHKVFMVKPEEPFQPVKEATQL [C20Q] | 0.0532 |  |  |  |  | 0.0424 |  | 0.0441 |  |  |  | 0.0418 | 0.0547 | 0.0465 | 0.0396 |  | 0.0528 | 0.0563 | 0.052 | 
6 | MGESLFKGPRDYNPISSSICALTNESDGHTTSLYGIGFGPFIITNKHLFRRNNGTLVVQSLHGVFKVKDTTTLQQHLVDGRDMIIIRMPKDFPPFPQKLKFREPQREERICLVTTNFQTKSMSSMVSDTSCTFPSGDGIFWKHWIQTKDGQCGSPLVSTRDGFIVGIHSASNFTNTNNYFTSVPKNFMELLTNQEAQQWVSGWRLNADSVLWGGHKVFMVKPEEPFQPVKEATQL [H21A] | 0.0931 | 0.0712 | 0.0803 | 0.119 | 0.0822 | 0.0539 | 0.058 | 0.0602 | 0.0926 | 0.0572 | 0.0746 |  | 0.0983 | 0.0552 |  | 0.0658 | 0.0613 | 0.118 | 0.0689 | 
7 | MGESLFKGPRDYNPISSSICCLTNESDGHTTSLYGIGFGPFIITNKHLFRRNNGTLVVQSLHGVFKVKDTTTLQQHLVDGRDMIIIRMPKDFPPFPQKLKFREPQREERICLVTTNFQTKSMSSMVSDTSCTFPSGDGIFWKHWIQTKDGQCGSPLVSTRDGFIVGIHSASNFTNTNNYFTSVPKNFMELLTNQEAQQWVSGWRLNADSVLWGGHKVFMVKPEEPFQPVKEATQL [H21C] | 0.0894 | 0.0378 | 0.0532 | 0.105 |  |  |  |  |  | 0.0509 | 0.0753 | 0.0557 | 0.0997 | 0.0744 | 0.0635 | 0.0631 | 0.065 |  | 0.0752 | 
8 | MGESLFKGPRDYNPISSSICQLTNESDGHTTSLYGIGFGPFIITNKHLFRRNNGTLVVQSLHGVFKVKDTTTLQQHLVDGRDMIIIRMPKDFPPFPQKLKFREPQREERICLVTTNFQTKSMSSMVSDTSCTFPSGDGIFWKHWIQTKDGQCGSPLVSTRDGFIVGIHSASNFTNTNNYFTSVPKNFMELLTNQEAQQWVSGWRLNADSVLWGGHKVFMVKPEEPFQPVKEATQL [H21Q] | 0.101 | 0.07 | 0.0642 | 0.1 | 0.0809 | 0.057 | 0.0591 | 0.06 | 0.0828 | 0.0579 |  | 0.0615 | 0.1 | 0.0656 |  | 0.0559 | 0.0961 | 0.119 | 0.0722 | 
9 | MGESLFKGPRDYNPISSSICHETNESDGHTTSLYGIGFGPFIITNKHLFRRNNGTLVVQSLHGVFKVKDTTTLQQHLVDGRDMIIIRMPKDFPPFPQKLKFREPQREERICLVTTNFQTKSMSSMVSDTSCTFPSGDGIFWKHWIQTKDGQCGSPLVSTRDGFIVGIHSASNFTNTNNYFTSVPKNFMELLTNQEAQQWVSGWRLNADSVLWGGHKVFMVKPEEPFQPVKEATQL [L22E] | 0.0499 |  |  |  | 0.0565 | 0.0379 | 0.0343 | 0.0345 | 0.0205 | 0.0462 |  | 0.0489 | 0.0442 | 0.0485 | 0.0415 | 0.0461 | 0.0333 | 0.0531 | 0.0308 | 0.0489
